Hit rate of the full screen: of about 110,000 compounds, about 230 (0.21%) showed an effect of 50% or more. Some of the results follow.
Each molecule was assayed against DPAP1 (Plasmodium falciparum, UniProt Q8IIJ9) (assay: primary screen, percent inhibition; read by cleavage of a fluorogenic dipeptide substrate; higher = more effect of the substance).
Parameters: species or system P. falciparum D10 trophozoite lysates; single well
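Also: 30 min substrate incubation versus DMSO and 10 µM JCP410 controls.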

Chain of DPAP1 (Q8IIJ9 whole entry, looked up): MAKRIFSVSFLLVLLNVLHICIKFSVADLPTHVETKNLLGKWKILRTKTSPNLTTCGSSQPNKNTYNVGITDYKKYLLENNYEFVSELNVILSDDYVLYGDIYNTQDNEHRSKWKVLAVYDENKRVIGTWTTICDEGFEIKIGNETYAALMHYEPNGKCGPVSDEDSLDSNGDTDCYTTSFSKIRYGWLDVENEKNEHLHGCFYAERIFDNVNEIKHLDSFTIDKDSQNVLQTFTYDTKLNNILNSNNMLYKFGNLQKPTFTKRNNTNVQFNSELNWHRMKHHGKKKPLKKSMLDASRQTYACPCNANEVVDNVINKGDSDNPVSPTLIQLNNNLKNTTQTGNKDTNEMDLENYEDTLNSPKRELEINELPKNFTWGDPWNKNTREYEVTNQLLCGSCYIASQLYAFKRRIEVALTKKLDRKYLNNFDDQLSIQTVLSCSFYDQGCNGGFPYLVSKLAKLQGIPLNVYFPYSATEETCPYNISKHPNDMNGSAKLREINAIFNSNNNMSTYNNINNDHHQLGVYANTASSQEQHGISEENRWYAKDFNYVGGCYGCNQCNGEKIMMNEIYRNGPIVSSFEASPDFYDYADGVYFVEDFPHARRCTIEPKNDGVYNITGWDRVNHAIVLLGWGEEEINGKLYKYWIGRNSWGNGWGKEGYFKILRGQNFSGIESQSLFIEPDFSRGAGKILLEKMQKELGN

| SMILES | % Inhibition @ 10 uM |
| --- | --- |
| Cc1nn(CC(=O)N2CCC(C)CC2)c(=O)c2nn(-c3ccccc3)c(C)c12 | -2.49% |
| COc1ccccc1CNC(=O)c1csc2c1CCCC2 | -3.21% |
| CC(C)Oc1c(-c2ccccc2)c(=O)c1=O | 2.76% |
| COC(=O)C1=CN(Cc2cccs2)C=C(C(=O)OC)C1c1cccc(OC)c1 | -3.28% |
| COC(=O)c1sc2nc(N)c(C#N)c(-c3ccccc3)c2c1N | -1.05% |
| C/C(Cl)=C/CSc1nn2c(=O)c3ccccc3nc2s1 | 5.83% |
| CCSc1nnc(NC(=O)C2CCCN(S(=O)(=O)c3c[nH]cn3)C2)s1 (stereo not shown) | 2.93% |
| COc1ccc(C(=O)c2sc3nc4c(c(-c5cccnc5)c3c2N)CCC4)cc1OC | 17.2% |
| Cc1ccc(CN2CCN(CC(=O)NCc3cccnc3)C2=O)cc1 | 0.0931% |
| CCOc1cc(C2C3=C(O)CCCC3=NC(C)=C2C(=O)N2CCCCC2)cc(Br)c1O (stereo not shown) | -2.47% |
| Cc1cc(-c2[nH]nc3c2C2(C(=O)Nc4ccccc42)C(C#N)=C(N)O3)c(C)s1 (stereo not shown) | -0.736% |
| Clc1ccc(OCCCCCN2CCOCC2)cc1 | 3% |
| Cc1c(-c2nsc(NC(=O)c3cccc(F)c3)n2)nnn1-c1ccc(C(C)C)cc1 | 2.14% |
| CCOc1ccc(CCNC(=O)CN2N=C(c3ccc(Cl)cc3)CCC2=O)cc1OCC | 0.514% |
| COc1cc(C)nc(NCc2ccccc2)n1 | -3.06% |
| CC(C)CCNC(=O)Nc1cn(C)c(=O)c2ccccc12 | 6.77% |
| COCCCNC(=O)c1noc2c1COc1ccccc1-2 | 84.2% |
| Cc1cc(=O)n2nc(N(C)CC(=O)NCc3ccc(F)cc3)sc2n1 | 6.06% |
| COc1ccccc1N1CCN(C(=O)CN(c2ccccc2C)S(=O)(=O)c2ccc(C)cc2)CC1 | 2.37% |
| CCC(C)O/C(O)=C1/C(C)=NC2=C(C(=O)CC(c3ccc(OC)cc3)C2)C1c1ccc(O)cc1 (stereo not shown) | 6.51% |
| CCOC(=O)N1CCC(NC(=O)C2c3ccccc3C(=O)N(CC(C)C)C2c2cccs2)CC1 (stereo not shown) | 1.69% |

| SMILES | % Inhibition @ 10 uM |
| --- | --- |
| O=C1c2ccsc2OC1c1cccc2ccccc12 (stereo not shown) | -9.29% |
| N#CC1=C(N)Oc2cc(O)ccc2C1c1ccc(-c2ccccc2)cc1 (stereo not shown) | -0.197% |
| COc1ccccc1/C=C/C=c1\sc2nc(-c3ccc(Cl)cc3)nn2c1=O | 0.222% |
| Cc1nn(-c2ccccc2Cl)c(N)c1-c1ccccc1 | -2.19% |
| CC(C)c1ccc(/C=C2N=C(/C=C/c3ccccc3)OC/2=O)cc1 | -2.18% |
| COc1ccc(C(=O)/C=C/c2ccccc2C)c(OC)c1 | 0.255% |
| O=C1c2[nH]nc(-c3ccccc3O)c2C(c2cccc(O)c2)N1CCc1ccccc1 (stereo not shown) | 3.62% |
| CCc1ccc(C2C(C#N)=C(N)Oc3cc(N)ccc32)cc1 (stereo not shown) | 0.777% |
| CN(C)CCN1C(=O)C(O)=C(C(=O)c2cc3ccccc3o2)C1c1ccc(OCc2ccccc2)cc1 (stereo not shown) | -3.13% |
| Cc1oc(-c2cccs2)nc1CN1CCCC(C(=O)NC2CCCCCC2)C1 (stereo not shown) | -1.05% |
| N#CC1(NC(=O)[C@H](Cc2c(F)cccc2F)NC(=O)c2ccc(-c3ccccc3Cl)c(Cl)c2)CCSCC1 | -3.48% |
| Cc1ccc(C2C(C#N)=C(N)OC3=C2C(=O)c2ccccc23)s1 (stereo not shown) | -4.77% |
| COc1ccc(-c2ccc(-c3noc(-c4ccc(OC)c(OC)c4)n3)c(OC)n2)cc1 | 0.415% |
| CN(CCNC(=O)c1ccc(CS(=O)(=O)Cc2ccc(Cl)cc2)o1)CCc1ccccc1 | 5.47% |
| Cc1onc(-c2ccccc2Cl)c1C(=O)NCCc1nc2ccccc2[nH]1 | -0.0678% |
| CC1CCN(C(=O)c2ccc3snnc3c2)CC1 | -0.0235% |
| Clc1cccc2c(N3CCCCCC3)cnnc12 | -6.95% |
| CCCCOc1ccc(C(=O)NC2=NC(=O)CC(c3cc(OC)ccc3OC)N2)cc1 (stereo not shown) | -0.485% |
| CC(C)c1ccc(NC(=O)/C=C\C(=O)O)cc1 | -1.77% |
| Cc1c(C(=O)N2CCC3(CC2)OCCO3)sc2nc3n(c(=O)c12)CCCCC3 | -9.37% |
| Cn1cccc1/C=C1\SC(=O)N(CC(=O)Nc2ccc(Br)cc2)C1=O | -1.98% |

| SMILES | % Inhibition @ 10 uM |
| --- | --- |
| N#Cc1ccccc1NC(=O)Cc1cccc2ccccc12 | -6.59% |
| O=C(NCc1ccccc1)c1cccc(S(=O)(=O)NCc2ccccc2)c1 | -3.52% |
| Cc1ccc(CSCC(=O)NCCc2ccc(Cl)cc2)cc1 | -2.99% |
| CCCNC(=O)Cn1ncc2c3ccccc3n(Cc3ccccc3)c2c1=O | 3.4% |
| CCC(C)c1ccccc1OCC(=O)Nc1ccc(S(=O)(=O)N2CCCCC2)cc1 (stereo not shown) | -1.44% |
| COc1ccc(F)cc1S(=O)(=O)NC1CC(C)(C)NC(C)(C)C1 | -1.33% |
| CCOC(=O)N1CC=C(c2c(C)[nH]c3ccccc23)CC1 | -6.92% |
| COc1cccc(S(=O)(=O)Nc2ccc(C(=O)N3CCOCC3)cc2)c1 | -6.64% |
| COc1ccc(N(CC(=O)Nc2cc(C)ccc2C)S(C)(=O)=O)cc1Cl | -3.78% |
| CN1C(=O)c2ccccc2C(C(=O)N2CCN(Cc3ccccc3)CC2)C1c1cn(C)c2ccccc12 (stereo not shown) | 43.8% |
| CCCOc1ccc(C(=O)N(Cc2cccc(F)c2)Cc2ccco2)cc1 | 2.29% |
| CCc1ccc(NC(=O)C2CCN(C(=O)c3ccc(Cl)cc3)CC2)cc1 | -5.21% |
| Cc1ccc(-n2nc3c(N4CCCC(C(=O)N5CCCCC5)C4)nnc(C)c3c2C)cc1 (stereo not shown) | -1.05% |
| Cc1cccn2c(=O)c(/C=C(\C#N)C(=O)NCC3CCCO3)c(Oc3ccc(Cl)cc3)nc12 (stereo not shown) | -5.1% |
| Cc1ccc(CNC(=O)c2ccc(CS(=O)(=O)c3cccc(C(F)(F)F)c3)o2)cc1 | 2.14% |
| Cc1ccsc1C1C(C#N)=C(N)OC2=C1C(=O)CC(C)C2 (stereo not shown) | -1.38% |
| Cc1nc(SCC(=O)Nc2ccc(Cl)cn2)[nH]c1CC(C)C | 0.895% |
| O=C(Nc1cc(Cl)c([N+](=O)[O-])cc1Cl)c1cc2ccccc2cc1O | 1.41% |
| Cc1cccc(CNS(=O)(=O)c2ccc(-c3cc(C(F)(F)F)no3)s2)c1 | 1.73% |
